The list shows a part of the results. These are further read-outs of the screen, such as a control signal, another cell line or another target. No call is given for them.

This assay can be described thus: compounds boosting herpes simplex virus growth – fold increase, host cell viability (AID 1956). Note: tested in PC3 cells. As to conditions: HSV replication augmentation in cells; fold increase: measured here: primary screen fold increase 10 uM, at 10 µM, stronger effect = higher value; viability: measured here: host cell viability series, at 25 µM, stronger effect = lower value.
As for `CN(C)S(=O)(=O)c1cccc(C(=O)NCc2ccco2)c1`, the fold increase was 1.38 and the viability (commonly a read-out of living cells in per cent, often relative to untreated cells) came out at 100%.
In the same order, the values of `CCOC(=O)C1=C(N)Oc2c(oc(CO)cc2=O)C1c1ccc(Cl)cc1` (stereo unspecified) are 1.69 and 90.3%.
As to `Cc1cc(NCc2ccc3c(c2)OCO3)n2nc(C)nc2n1`, the fold increase amounted to 1.41 and the viability amounted to 93.5%.
The matching figures for `Cc1cc2cc(C(c3nnnn3Cc3ccco3)N3CCc4ccccc43)c(=O)[nH]c2cc1C` (stereo unspecified): 1.46 and 95.3%.
In the same order, the values of `O=C1OC(C(=O)NCc2ccccc2)Cc2ccccc21` (stereo unspecified) are 1.4 and 104%.
In the same order, the values of `O=C(CC1C(=O)NCCN1C/C=C/c1ccccc1)NCCc1cccnc1` (stereo unspecified) are 1.4 and 97.9%.
Take `COc1ccc(N=C(C)c2sc3ccccc3c2O)cc1`: the fold increase turned out to be 2.04 and the viability was 97.4%.
The matching figures for `CCCCCn1nc(-c2ccccc2)c2nc3ccccc3nc21`: 1.35 and 101%.
Compound `COc1cc(/C=C/c2ccc3c(Br)cc(Br)c(O)c3n2)ccc1O` gave a fold increase of 1.95.
`CC(C)(C)C(=O)c1sc2nc(-c3cccs3)cc(C(F)(F)F)c2c1N`: the fold increase was 1.52 and the viability was 101%.
`Cc1ccc(CNc2ccc3c(c2)OCO3)cc1` returned a fold increase of 1.33.
As for `COc1ccc(-n2c(Cn3c(=O)sc4ccccc43)nnc2SC)cc1`, the fold increase came to 1.39 and the viability amounted to 93.5%.
For `Cc1ccc2nc(/C(C#N)=C/c3ccc(-c4cccc([N+](=O)[O-])c4)o3)[nH]c2c1`, the fold increase worked out at 2.19.
The same measure, in the same setting: in the case of `Cc1ccc(-c2nnn(CC(=O)N(Cc3cccs3)C(C(=O)NC3CCCCC3)c3ccco3)n2)o1` (stereo unspecified) it was 1.06.
Consider `Cc1ccc(C(=O)NCC(=O)OCC(=O)c2cc(C)n(Cc3ccco3)c2C)cc1`, for which the fold increase is 1.37 and the viability worked out at 95.7%.
`O=C(CN1CCCc2ccccc21)NCc1ccccc1Cl` came in with a fold increase of 1.32.
Regarding `COc1cc(/C=C2/CCC/C(=C\c3cc(O)c(OC)c(Cl)c3)C2=O)cc(Cl)c1O`, the fold increase turned out to be 1.42 and the viability was found to be 21%.
In the same order, the values of `C=CCN1C=CC(=CC=C(C#N)C#N)C=C1` are 2.37 and 91.2%.
As to `COc1ccc(C2C(C#N)=C(N)N3C(=C2C#N)Sc2ccccc23)cc1` (stereo unspecified), the fold increase was found to be 1.54.
Regarding `O=C1CC(NNC(=O)c2ccccc2)C(=O)N1` (stereo unspecified), the fold increase is 1.33 and the viability worked out at 98.4%.
The matching figures for `CCCS(=O)(=O)N1CCN(Cc2ccncc2)CC1`: 1.35 and 97.4%.
Turning to `CN1CCS/C1=C/C=C1\SC(=S)N(CC(=O)O)C1=O`, the fold increase came to 2.26.
`COc1cc(/C=C(\C#N)C(=O)c2c[nH]c3ccccc23)cc(OC)c1O` came in with a fold increase of 7.38.
Regarding `O=C(O)c1ccc(S(=O)(=O)c2ccc(Sc3ccc(C(=O)O)c(C(=O)O)c3)cc2)cc1`, the fold increase was 1.6 and the viability amounted to 105%.
Turning to `COc1ccccc1C1CC(c2ccco2)=NN1c1ccccc1` (stereo unspecified), the fold increase was 1.51 and the viability was found to be 94.2%.
In the same order, the values of `Cc1ccc(C(=O)O)cc1N=Cc1cc(Br)cc(Br)c1O` are 1.54 and 103%.
The matching figures for `N#Cc1c(N)n(-c2cccc(C(=O)O)c2)c2nc3ccccc3nc12`: 1.71 and 93.3%.
`CCS(=O)(=O)c1nn2c(N)c(/C=C3/C=CC(=O)C(OC)=C3)c(=O)nc2s1`: the fold increase is 4.28 and the viability turned out to be 94.6%.
Take `COc1ccc(Oc2nc(C(F)(F)F)nc3ccccc23)cc1`: the fold increase stood at 1.37 and the viability came out at 103%.
The matching figures for `NC1=NC(=O)/C(=C/c2cn(Cc3ccccc3)c3ccccc23)S1`: 1.33 and 85.7%.
Turning to `CCN1C(=O)/C(=C/C=C2/SCCN2C)SC1=S`, the fold increase stood at 2.36 and the viability turned out to be 99.7%.
For the compound `CCOc1cc(C2C(C(=O)c3ccc(C)cc3)=C(C(=O)OC)Nc3nnnn32)ccc1O` (stereo unspecified), the fold increase worked out at 1.39 and the viability was determined as 93.4%.
For the compound `Cc1nonc1CN(C)C(=O)CC1C(=O)NCCN1Cc1c(F)cccc1Cl` (stereo unspecified), the fold increase amounted to 1.32.
Still for that read-out and setting: the figure for `CC(=O)c1sc(N/N=C\c2ccc(C)cc2)nc1C` is 1.34.
Turning to `CCCCN(C)C(=O)c1nc2ccccn2c1CN1CCC[C@H]1C(=O)OC`, the fold increase worked out at 1.6 and the viability stood at 90.1%.
For the compound `C=C(C)CSc1nnc(-c2cccc(Cl)c2)n1N`, the fold increase came to 1.46 and the viability amounted to 89.9%.
As for `CC1=NNC(=O)c2ccccc2O1`, the fold increase was found to be 1.34 and the viability came to 102%.
The matching figures for `CCN(CC)C(=O)CSc1nnc2nnc3cc(C)ccc3n12`: 2.07 and 93.9%.
With `COC1=C/C(=C/c2c(N)n3nc(-c4ccc(C)cc4)sc3nc2=O)C=CC1=O`, the fold increase came out at 1.89 and the viability was 96.8%.
With `Cc1cccc(-n2nc(CC#N)c(C#N)c2N)c1`, the fold increase was 1.41 and the viability worked out at 98.1%.
For the compound `CC(=O)c1ccc(N=c2scc(C)n2C(C)C)cc1`, the fold increase was 1.33 and the viability was determined as 98.9%.
`Cc1ccsc1C1C=C(c2cccc(Br)c2)Nc2ncnn21` (stereo unspecified): the fold increase was determined as 1.55.
Same read-out and setting: in the case of `Cc1ccc(N2C(=O)c3cccc4c(Oc5ccccc5[N+](=O)[O-])ccc(c34)C2=O)c(C)c1` it was 3.72.
Regarding `COc1cc(/C=C2\SC(=S)N(NC(=O)c3cccnc3)C2=O)ccc1O`, the fold increase was determined as 6.5 and the viability stood at 95%.
The compound `Cc1csc(NC(=O)CSc2nnc(-c3ccccn3)n2-c2ccc(C)c(C)c2)n1` yielded a fold increase of 1.17.
Take `C/C(=N/NC(N)=S)c1cc2ccc(O)cc2oc1=O`: the fold increase amounted to 3.06 and the viability stood at 98.7%.
With `N#Cc1cc(C(=O)c2ccccc2O)cn(-c2ccc(Cl)cc2)c1=O`, the fold increase stood at 2 and the viability worked out at 94.2%.
